Test results reported in article PMC7923178, “Binding of Amyloid β(1–42)-Calmodulin Complexes to Plasma Membrane Lipid Rafts in Cerebellar Granule Neurons Alters Resting Cytosolic Calcium Homeostasis” (International Journal of Molecular Sciences, 2021).

Experiment: Aggregation state of Aβ(1–42) solutions, photoinduced cross-linking and Tricine-SDS-PAGE
Settings: 177 μM; photoinduced cross-linking, Tricine-SDS-PAGE

Aβ(1–42): Unlabeled amyloid β(1–42) peptide synthesized and supplied by StabVida
monomers in stock solutions: not detected
predominant aggregation state in stock solutions: dimers were the predominant aggregation state
